In the antibiotic and cytotoxicity screens of Wong et al. (2023) one finds cytotoxicity call and growth inhibition call data, which are given here for 37 compounds.

Structures are written as SMILES. The list shows a part of the results.

For one test, the system named is HSkMC. Nature of the test: cytotoxicity call (relative viability < 0.9). The settings on record: 10 µM.
Another test relates to HepG2. Nature of the test: cytotoxicity call (relative viability < 0.9). Conditions: 10 µM.
The next test deals with S. aureus RN4220. Nature of the test: growth inhibition call (relative growth <= 0.2). Conditions: 50 µM.

For the compound `C[C@@H]1CN([C@@H](C)CO)C(=O)c2cc(NC(=O)c3ccncc3)ccc2O[C@@H](C)CCCCO[C@H]1CN(C)C(=O)Nc1ccccc1`, the cytotoxicity call in the test on HSkMC and in the test on HepG2 was “inactive” throughout. For the same compound, the growth inhibition call in the test on S. aureus RN4220 was “inactive”.

As to `C[C@@H]1CCCCO[C@H](CN(C)C(=O)Nc2ccc(C(F)(F)F)cc2)[C@H](C)CN([C@@H](C)CO)C(=O)c2cc(NC(=O)Nc3ccccc3)ccc2O1`, the cytotoxicity call in the test on HSkMC and in the test on HepG2 was “inactive” each time. Also, the growth inhibition call with S. aureus RN4220 is “inactive”.

In the case of `OC[C@@H]1CC[C@@H]2O[C@H](CCc3ccc(C#Cc4ccccc4)cc3)[C@@H](n3cc(-c4ccccc4)nn3)C[C@@H]2O1`, the cytotoxicity call with HSkMC and in the test on HepG2 was “active” each time. Also, the growth inhibition call with S. aureus RN4220 was “inactive”.

Consider `C[C@@H]1CN([C@H](C)CO)C(=O)c2cc(NS(=O)(=O)c3ccccc3)ccc2O[C@H]1CN(C)S(C)(=O)=O`, for which, in the test with HSkMC, the cytotoxicity call was “inactive”. Also, the cytotoxicity call in the test on HepG2 was “active”. Moreover, the growth inhibition call in the test with S. aureus RN4220 was “inactive”.

As to `C[C@H]1CN([C@@H](C)CO)C(=O)c2cc(C#Cc3ccncc3)cnc2O[C@H]1CN(C)C(=O)c1ccccc1F`, the cytotoxicity call in the test on HSkMC and with HepG2 was “inactive” each time. The growth inhibition call in the test with S. aureus RN4220 was “inactive”.

For the compound `O=C(C[C@@H]1CC[C@@H]2[C@H](COC[C@@H](O)CN2C(=O)Nc2cccc(F)c2)O1)NCCCN1CCOCC1`, the cytotoxicity call in the test with HSkMC and in the test with HepG2 was “inactive” each time. The growth inhibition call in the test with S. aureus RN4220 is “inactive”.

On to `C[C@H]1CN([C@@H](C)CO)C(=O)Cc2cc(NC(=O)Nc3cccc4ccccc34)ccc2O[C@@H]1CN(C)C(=O)Nc1ccc2c(c1)OCO2`, for which the cytotoxicity call in the test on HSkMC and in the test with HepG2 was “inactive” in each case. The growth inhibition call in the test with S. aureus RN4220 was “inactive”.

Regarding `COCC(=O)N1CC[C@]2(CC1)CN(Cc1cccc(c1)OC)[C@@H](CO)c1c2c2ccc(cc2n1C)OC`, the cytotoxicity call in the test on HSkMC and in the test on HepG2 was “inactive” each time. Also, the growth inhibition call in the test with S. aureus RN4220 was “inactive”.

In the case of `C[C@H](CO)N1C[C@H](C)[C@H](CN(C)C(=O)CN(C)C)Oc2ncc(-c3ccc(C(=O)N(C)C)cc3)cc2C1=O`, the cytotoxicity call in the test on HSkMC and with HepG2 was “inactive” throughout. In the test with S. aureus RN4220, the growth inhibition call is “inactive”.

In the case of `CC(C)N1C[C@H](C)[C@@H](CN(C)Cc2ccc(Oc3ccccc3)cc2)Oc2c(NC(=O)C3CCN(C)CC3)cccc2C1=O`, in the test with HSkMC, the cytotoxicity call is “inactive”. The cytotoxicity call with HepG2 was “active”. Also, in the test on S. aureus RN4220, the growth inhibition call was “inactive”.

In the case of `C[C@@H]1CCCCO[C@H](CN(C)S(=O)(=O)c2ccc(Cl)cc2)[C@@H](C)CN([C@H](C)CO)C(=O)c2cc(NC(=O)CCCCCC(=O)Nc3ccccc3N)ccc2O1`, the cytotoxicity call with HSkMC and in the test on HepG2 was “inactive” each time. The growth inhibition call with S. aureus RN4220 is “inactive”.

Regarding `C[C@H](CO)N1C[C@H](C)[C@@H](CN(C)Cc2ccncc2)Oc2c(NS(=O)(=O)c3ccc(F)cc3)cccc2C1=O`, the cytotoxicity call in the test on HSkMC and in the test on HepG2 was “inactive” throughout. The growth inhibition call in the test with S. aureus RN4220 is “inactive”.

Take `O=C(C[C@H]1CC[C@H]2NC[C@@H](O)COC[C@@H]2O1)NCCN1CCCCC1`: the cytotoxicity call in the test with HSkMC and in the test on HepG2 was “inactive” in each case. In addition, in the test on S. aureus RN4220, the growth inhibition call was “inactive”.

`COc1ccc2c3c([nH]c2c1)[C@H](CO)N(C[C@]13CCN(CCc2ccccc2)CC1)C(=O)CN1CCOCC1`: the cytotoxicity call with HSkMC and with HepG2 was “inactive” each time. Further, in the test with S. aureus RN4220, the growth inhibition call is “inactive”.

Regarding `Cc1noc(C)c1NC(=O)N(C)C[C@H]1OCCCC[C@H](C)Oc2ccc(NC(=O)Nc3ccccc3)cc2C(=O)N([C@H](C)CO)C[C@@H]1C`, the cytotoxicity call with HSkMC and in the test on HepG2 was “inactive” each time. In addition, the growth inhibition call with S. aureus RN4220 was “inactive”.

Turning to `NC(=O)CSc1nnnn1-c1ccccc1`, the cytotoxicity call with HSkMC and with HepG2 was “inactive” in each case. Also, in the test on S. aureus RN4220, the growth inhibition call is “inactive”.

As to `COc1ccc(S(=O)(=O)Nc2cccc3c2O[C@H](CN(C)Cc2ccc(-c4ccccc4)cc2)[C@H](C)CN([C@H](C)CO)C3=O)cc1`, the cytotoxicity call in the test on HSkMC and in the test on HepG2 was “inactive” throughout. Moreover, the growth inhibition call with S. aureus RN4220 is “inactive”.

For `C[C@H]1CCCCO[C@H](CN(C)Cc2ccncc2)[C@@H](C)CN([C@@H](C)CO)C(=O)c2cc(NC(=O)c3ccccc3)ccc2O1`, the cytotoxicity call in the test on HSkMC and with HepG2 was “inactive” throughout. For the same compound, the growth inhibition call in the test with S. aureus RN4220 is “inactive”.

In the case of `C[C@@H]1CCCCO[C@H](CN(C)C(=O)Nc2cccc3ccccc23)[C@H](C)CN([C@@H](C)CO)C(=O)c2cc(NC(=O)Nc3ccc(F)cc3)ccc2O1`, the cytotoxicity call in the test with HSkMC and in the test on HepG2 was “inactive” throughout. In the test with S. aureus RN4220, the growth inhibition call is “inactive”.

On to `CC1=CC=CC2=NC(=O)C[C@](C)(C(=O)O)N12`, for which the cytotoxicity call with HSkMC and with HepG2 was “inactive” in each case. The growth inhibition call in the test on S. aureus RN4220 was “inactive”.

For `C[C@@H]1CCCCO[C@H](CN(C)C(=O)Nc2cccc3ccccc23)[C@@H](C)CN([C@H](C)CO)C(=O)c2cc(NC(=O)Nc3ccc4c(c3)OCO4)ccc2O1`, the cytotoxicity call in the test on HSkMC and in the test with HepG2 was “inactive” throughout. Further, in the test on S. aureus RN4220, the growth inhibition call is “inactive”.

For the compound `C[C@H](CO)N1C[C@H](C)[C@H](CN(C)S(=O)(=O)c2ccccc2F)Oc2cc(-c3ccncc3)ccc2S1(=O)=O`, the cytotoxicity call in the test with HSkMC and with HepG2 was “inactive” in each case. Further, the growth inhibition call with S. aureus RN4220 was “inactive”.

Regarding `Cc1ccc(S(=O)(=O)N(C)C[C@@H]2Oc3ccc(NC(=O)Nc4cccc5ccccc45)cc3CC(=O)N([C@H](C)CO)C[C@@H]2C)cc1`, the cytotoxicity call in the test with HSkMC is “inactive”. For the same compound, the cytotoxicity call with HepG2 was “active”. The growth inhibition call with S. aureus RN4220 was “inactive”.

`C[C@H](CO)N1C[C@H](C)[C@H](CN(C)C(=O)Nc2cccc3ccccc23)OCCCC[C@H](C)Oc2ccc(NS(C)(=O)=O)cc2C1=O`: the cytotoxicity call with HSkMC and with HepG2 was “inactive” each time. In addition, in the test with S. aureus RN4220, the growth inhibition call is “inactive”.

Regarding `CC(C)NC(=O)N(C)C[C@@H]1Oc2c(NC(=O)Nc3ccc4c(c3)OCO4)cccc2C(=O)N([C@@H](C)CO)C[C@H]1C`, the cytotoxicity call in the test on HSkMC was “inactive”. In the test with HepG2, the cytotoxicity call was “active”. In the test with S. aureus RN4220, the growth inhibition call was “inactive”.

Take `COc1ccc(NC(=O)Nc2cccc3c2O[C@@H](CN(C)Cc2ccc(C(F)(F)F)cc2)[C@H](C)CN([C@H](C)CO)C3=O)cc1`: the cytotoxicity call in the test with HSkMC and with HepG2 was “inactive” throughout. Further, the growth inhibition call in the test on S. aureus RN4220 is “inactive”.

With `C[C@H]1CN([C@@H](C)CO)C(=O)c2cc(C#CCN(C)C)cnc2O[C@H]1CN(C)C(=O)Nc1ccccc1F`, the cytotoxicity call in the test on HSkMC and in the test on HepG2 was “inactive” each time. Further, the growth inhibition call in the test on S. aureus RN4220 was “inactive”.

Take `O=C(O)c1ccncc1`: the cytotoxicity call in the test with HSkMC and in the test on HepG2 was “inactive” each time. Also, in the test with S. aureus RN4220, the growth inhibition call is “inactive”.

Consider `O=C(CCCCCCCC(=O)NCCO)NCCO`, for which the cytotoxicity call with HSkMC and in the test on HepG2 was “inactive” throughout. In addition, the growth inhibition call in the test on S. aureus RN4220 was “inactive”.

Turning to `CCC1(c2ccccc2)C(=O)NCNC1=O`, the cytotoxicity call in the test on HSkMC and in the test on HepG2 was “inactive” throughout. Further, the growth inhibition call in the test with S. aureus RN4220 was “inactive”.

On to `C[C@@H]1CN([C@@H](C)CO)C(=O)c2cccc(NC(=O)c3cnccn3)c2O[C@@H]1CN(C)S(=O)(=O)c1cn(C)cn1`, for which the cytotoxicity call in the test with HSkMC and in the test on HepG2 was “inactive” each time. Also, the growth inhibition call with S. aureus RN4220 is “inactive”.

For `C[C@@H]1CN([C@H](C)CO)S(=O)(=O)c2ccc(C3=CCCC3)cc2O[C@@H]1CN(C)C(=O)Cc1ccncc1`, the cytotoxicity call in the test on HSkMC and in the test with HepG2 was “inactive” each time. In the test with S. aureus RN4220, the growth inhibition call was “inactive”.

`Cc1ccc(-c2cnc3c(c2)C(=O)N([C@@H](C)CO)C[C@@H](C)[C@H](CN(C)C(=O)Cc2cccnc2)O3)cc1`: the cytotoxicity call in the test with HSkMC and in the test on HepG2 was “inactive” in each case. In addition, in the test with S. aureus RN4220, the growth inhibition call is “inactive”.

With `O=C(O)Cn1cc(Br)c(=O)[nH]c1=O`, the cytotoxicity call in the test with HSkMC and with HepG2 was “inactive” each time. Also, the growth inhibition call in the test with S. aureus RN4220 is “inactive”.

`C[C@H](CO)N1C[C@H](C)[C@@H](CN(C)C(=O)Nc2ccccc2)Oc2ccc(NC(=O)Nc3ccc(C(F)(F)F)cc3)cc2C1=O`: the cytotoxicity call with HSkMC and in the test with HepG2 was “inactive” throughout. Moreover, the growth inhibition call with S. aureus RN4220 is “inactive”.

Turning to `Cc1noc(C)c1S(=O)(=O)N(C)C[C@@H]1OCCCC[C@@H](C)Oc2ccc(NS(=O)(=O)c3cn(C)cn3)cc2C(=O)N([C@H](C)CO)C[C@@H]1C`, the cytotoxicity call in the test on HSkMC (human skeletal muscle cells) and with HepG2 was “inactive” each time. Also, the growth inhibition call in the test with S. aureus RN4220 is “inactive”.

For `Cc1noc(C)c1NC(=O)N(C)C[C@H]1OCCCC[C@@H](C)Oc2ccc(NS(=O)(=O)c3ccc(Cl)cc3)cc2C(=O)N([C@H](C)CO)C[C@H]1C`, the cytotoxicity call in the test with HSkMC and with HepG2 was “inactive” each time. Besides, the growth inhibition call in the test with S. aureus RN4220 was “inactive”.
